# Reference: article PMC9574860, “Chemical Toolkit for PARK7: Potent, Selective, and High-Throughput” (Journal of Medicinal Chemistry, 2022)
# About 400 (5.1%) of roughly 7,900 compounds showed an effect of 50% or more. Some of the results follow.
# Biological target: Parkinson's disease protein 7 (PARK7/DJ1) (human, UniProt Q99497)
# Experiment: primary screen, percent inhibition; read as competition with a fluorescent probe by fluorescence polarization; higher = more effect of the substance
# Conditions: 100 µM
# Procedure, shortened: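 Fluorescence-polarization probe displacement (JYQ-107, 20 nM final, 2 h) after 2 h preincubation of PARK7 (0.2 μM final) with each fragment at 100 μM final. Read-out ex/em 480/520 nm; remaining activity derived from FP signal loss relative to reference controls.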
# Sequence of Parkinson's disease protein 7 (PARK7/DJ1) (Q99497 whole entry, looked up): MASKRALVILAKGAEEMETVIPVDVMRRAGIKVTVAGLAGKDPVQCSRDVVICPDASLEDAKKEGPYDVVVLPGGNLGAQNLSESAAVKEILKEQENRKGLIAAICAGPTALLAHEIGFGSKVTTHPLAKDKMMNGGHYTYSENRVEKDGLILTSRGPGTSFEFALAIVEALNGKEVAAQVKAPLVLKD
row,Structure (SMILES),Inhibition %
1,Cl.Cl.N#Cc1ccc2c(n1)CCNCC2,16.4%
2,CCC(=O)Nc1ccc(C(=O)CCl)cc1,4.09%
3,N#CC(=Cc1ccc(-c2nc3ccccc3s2)o1)C(N)=O,3.97%
4,N#Cc1ncn(CC(=O)N2CCSc3ccccc32)n1,2.82%
5,O=C(CCl)NCCC1CCCCC1,42.5%
6,C=CC(=O)NC1CCc2[nH]ncc2C1 (centres unmarked),2.61%
7,C=CC(=O)N(C)Cc1conc1CC,2.19%
8,O=C(O)c1cc(S(=O)(=O)F)ccc1Cl,7.95%
9,C=CC(=O)NCc1nc(C(=O)O)c(C)s1,5.67%
10,CN(C)c1oc(-c2ccccc2)nc1C#N,3.45%
11,O=C(CCl)NCC(=O)Nc1ccccc1Br,-1.05%
12,Cl.O=C1OCCC12CCNCC2,2.48%
13,Cn1cc(C(=O)O)c(CCCCl)n1,6.81%
14,CCN(Cc1ccc2c(c1)OCO2)C(=O)CCl,9.14%
15,COc1ccc(C(C)(C)C)cc1S(=O)(=O)n1cccn1,5.01%
16,COc1cccc(OC)c1OCC1CO1 (centres unmarked),9.03%
17,Cc1cc(C(=O)CCl)c(C)n1-c1ccc(F)cn1,5.68%
18,C=CC(=O)NC1CCCC1Cc1ccccn1 (centres unmarked),5.16%
19,Cc1ccc(-c2csc(NC(=O)CCl)n2)cc1C,0.444%
20,C=CC(=O)N1CCN(C2CC2)C(=O)C1,11.1%
21,O=S(=O)(c1ccc(Cl)c(Cl)c1)n1cccn1,-1.82%
22,CN(CC(=O)Nc1ccccc1Cl)C(=O)CCl,42.3%
23,COc1c(C2CCCN2C2CC(C)OC2=O)c(C)nn1C (centres unmarked),-0.963%
24,NC(=O)c1csc(C(=O)CCl)c1,101%
25,O=C(CCl)N1c2ccccc2Sc2ccccc21,1.08%
26,CCOCCCn1c(S)nc2ccccc2c1=O,5.07%

row,Structure (SMILES),Inhibition %
1,O=C(CCl)NC(=O)NCc1ccco1,9.61%
2,Cc1noc(C)c1Cn1cnc(C#N)n1,6.19%
3,C=CC(=O)NCCN1C(=O)CNC1=O,12.9%
4,CC(C(=O)O)n1c(S)nc2ccccc2c1=O (centres unmarked),7.43%
5,Cc1ccc(-c2nc(SC3CCOC3=O)n[nH]2)cc1 (centres unmarked),3.13%
6,Clc1ccc(OCC2CO2)cc1 (centres unmarked),2.18%
7,Cc1ccc(-c2nnc(SC3CCOC3=O)n2C)cc1 (centres unmarked),8.44%
8,C=CC(=O)N1CCCSc2ccccc21,5.67%
9,CN(C)S(=O)(=O)c1ccc(S)nc1,31.2%
10,Cl.O=C(CCl)c1ccncc1,95.3%
11,C=CC(=O)NCc1ccnc(N2CCOCC2)c1,13.5%
12,C=CC(=O)N1CC(c2nc(C)no2)C1,9.14%
13,O=C(CCl)N(C1=CCCCC1)C1CC1,28.7%
14,C=CC(=O)N1CCC(N)CC1.Cl,5.59%
15,CC(NC(=O)NC(=O)CCl)C1CC2CCC1C2 (centres unmarked),9.23%
16,O=C(CCl)Nc1cccc(I)c1,41%
17,O=C1OCCC1N1CCOC(c2ccc(Cl)cc2)C1 (centres unmarked),7.62%
18,O=S(=O)(c1cccnc1)N1CCC(B(O)O)C1 (centres unmarked),-1.81%
19,N#CC(=Cc1ccccc1OCC1CCCO1)C(N)=O (centres unmarked),2.51%
20,COc1cc(S(=O)(=O)n2nc(C)cc2C)ccc1Cl,11.5%
21,FC(F)(F)c1ccc(S)nn1,25.5%
22,Cn1nccc1NS(=O)(=O)c1cccc(S(=O)(=O)F)c1,89.5%
23,NC(=O)C=Cc1cccnc1,11.7%
24,O=C1NC(c2ccccc2)C12CCOCC2 (centres unmarked),2.64%
25,C#CC(=O)Nc1ccc(C(=O)O)cc1,1.94%
26,C=CC(=O)N(C)CC1(C)COC1,18%

row,Structure (SMILES),Inhibition %
1,C=CC(=O)NCC1(C)CC(F)(F)C1,5.99%
2,C=CC(=O)Nc1cccc(OC(F)F)c1,4.3%
3,C=CC(=O)N1CC(O)(c2cccc3ccccc23)C1,-1.66%
4,O=C(CCl)N1CCCC1c1ccc2c(c1)OCCO2 (centres unmarked),11.4%
5,Cc1nc(Cn2c(-c3ccccn3)noc2=O)cs1,-1.76%
6,C=CC(=O)N1CCc2c(ncn2-c2ccccc2)C1,2.64%
7,CC1(C)OB(c2ccc3[nH]c(C(F)(F)F)cc3c2)OC1(C)C,0.184%
8,CCCOc1cc(C)c(Cl)cc1S(=O)(=O)n1ccnc1,9.05%
9,C=CC(=O)Nc1ccc(F)c(N2CCOCC2)c1,3.72%
10,O=C(CCl)NCc1cccc(N2CCCC2=O)c1,24.5%
11,C=CC(=O)N1CCN(C(=O)c2ccccc2OC)CC1,6.39%
12,COc1ccc(Sc2nccnc2C#N)cc1,4.71%
13,CCn1c(S)nc2ccccc2c1=O,7.71%
14,N#Cc1n[nH]c2ccc(Cl)cc12,11%
15,C=CC(=O)NC1C2Cc3cc(F)ccc3C21 (centres unmarked),11.5%
16,N#Cc1ncccc1S(N)(=O)=O,6.94%
17,Cc1nc(C(C#N)=Cc2csnn2)sc1C,3.38%
18,C=CC(=O)N1Cc2ccc(OC)cc2C1,4.97%
19,C=CC(=O)Nc1ccc(Cl)cc1,5.59%
20,CN(C)C(=O)Oc1ccc2c(c1)OCO2,-4.08%
21,Cn1nccc1B1OC(C)(C)C(C)(C)O1,20.6%
22,CC(C)(C)[C@H]1OCC[C@@H]1CNC(=O)c1c[nH]c(C#N)c1,3.68%
23,C=CC(=O)N1CCN(CCc2ccc(F)cc2)CC1,8.07%
24,N#Cc1ncn(CC(=O)c2ccc3c(c2)CCCC3)n1,9.17%
25,O=C(CCl)Nc1cccc2ccccc12,18.9%
26,C=CC(=O)N1CCOCC1c1nnc(C)o1 (centres unmarked),12.4%

row,Structure (SMILES),Inhibition %
1,Cc1nnc(S)c(C(N)=O)c1C,21.1%
2,Cl.O=C(CCl)N1CCN(Cc2ccccc2)CC1,7.64%
3,O=C(CS)Nc1ccc(F)cc1,5.25%
4,C=CC(=O)N1CCSCC1c1cccs1 (centres unmarked),10.1%
5,Cc1cccc(OCC2CO2)c1 (centres unmarked),1.24%
6,N#Cc1ncn(CC(=O)Nc2ccccc2Cl)n1,9.82%
7,N#CC(=Cc1ccc(O)cc1)c1ccccn1,10.2%
8,Cc1nc(NC(=O)CN2CCSC2=O)sc1C,10.6%
9,CC1CC(Sc2nnc(-c3ccccc3)n2C)C(=O)O1 (centres unmarked),4.4%
10,O=C(CCl)c1ccc(Cl)cc1,75.6%
11,C=CC(=O)N1CCCC(n2cc(C(=O)O)nn2)C1 (centres unmarked),12.4%
12,O=C(CCl)NCCc1ccc2c(c1)OCCO2,47.9%
13,C=CC(=O)NCC1(CC)COC1,7.79%
14,O=C(CCCl)NC1CCCC1,8.22%
15,Cc1cc(C(=O)Nc2cccc(S(=O)(=O)F)c2)nn1C(C)(C)C,32.8%
16,C=CC(=O)NC1CCCc2cn(C3CCCC3)nc21 (centres unmarked),5.07%
17,O=C(CN1CCSC1=O)Nc1cccc(F)c1,6.11%
18,Cc1noc(C)c1S(=O)(=O)Oc1cccc2cccnc12,0.67%
19,CCOc1cc(S(=O)(=O)n2ccc(C)n2)ccc1Cl,2.71%
20,N#Cc1c(F)cccc1OS(=O)(=O)c1c[nH]cn1,4.42%
21,COc1ccc(C(=O)CCl)c(OC)c1,41.1%
22,COC(=O)c1ccccc1NC(=O)CCl,8.41%
23,CC(=O)N1CCN(C(=O)C=Cc2csc(C)n2)CC1,16%
24,CN(C)S(=O)(=O)c1ccc(NC(=O)CCl)cc1,84.2%
25,Fc1cccc(F)c1C1CO1 (centres unmarked),7.72%
26,Cc1nn(C)c(C)c1C=CC(=O)N1CCc2sccc2C1,11.3%

row,Structure (SMILES),Inhibition %
1,Cc1ccc(C#N)c(S)n1,4.79%
2,CC(c1ccccc1)N(C)C(=O)CCl (centres unmarked),98.5%
3,N#Cc1ccnc2ccccc12,6.17%
4,Cc1ccc(S(=O)(=O)N2CCCCC2C2OCCO2)cc1 (centres unmarked),3.92%
5,CC(C)(C)Nc1ccc(C#N)nc1,11.5%
6,COc1cccc(COCC2CO2)c1 (centres unmarked),5.75%
7,CC(=O)N1c2ccc(B3OC(C)(C)C(C)(C)O3)cc2CC1(C)C,5.32%
8,Clc1ccc([C@H]2CO2)cc1Cl,5.75%
9,CC(C)(C)OC(=O)N1CCOc2c(cccc2B2OC(C)(C)C(C)(C)O2)C1,5.79%
10,CN(C)C(=O)Sc1cccc(N)c1.Cl,15.1%
11,C=CC(=O)N1CCCC(C(=O)OC(C)(C)C)C1 (centres unmarked),11.6%
12,O=C(CCN1C(=O)CCC1=O)Nc1ccccc1F,6.84%
13,C=CC(=O)Nc1nc2ccc(F)cn2n1,5.86%
14,C=CC(=O)N1CCN(CC(C)C)C(=O)C1C (centres unmarked),0.151%
15,C=CC(=O)Nc1cccc(-c2noc(C(F)F)n2)c1,6.78%
16,O=C(O)C=CC(=O)Nc1ccc(F)cc1,7.34%
17,CCc1cc(=O)[nH]c(=S)[nH]1,6.25%
18,O=c1[nH]c(S)nc2ccc(F)cc12,1.88%
19,Cc1c2cnnc(S)c2c(C)n1C,7.71%
20,C=CC(=O)NC1CCSc2c(F)cccc21 (centres unmarked),10.1%
21,COc1ccc(S(=O)(=O)n2ccnc2C)cc1C,9.92%
22,C=CC(=O)N1CC2(C)CC1CC(C)(C)C2 (centres unmarked),3.44%
23,O=S(=O)(F)c1ccc(S(=O)(=O)Nc2ccccn2)cc1,5.71%
24,Cl.O=C(CCl)N1CCN(CCOc2ccccc2)CC1,0.06%
